Some of the results follow.

What all share (assay): glycan array binding signal (z-score within array); higher = stronger binding
Details in all cases: glycan notation: IUPAC condensed, linker removed

In one assay the target is Gal(b1-4)Glc. Put shortly: (§1)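 The binding signal is a Z-score computed within each array. Data were drawn from 3228 arrays in the Consortium for Functional Glycomics database, restricted to those with a known protein sequence. Scores were averaged over arrays of the same protein sequence at different concentrations or buffers, and over linkers, and negative values can be taken as non-binding.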

Another assay deals with Gal(b1-4)Glc6S. An outline of the steps: as §1
Another assay deals with Gal(b1-4)GlcNAc. Put shortly: as §1
For assay [1], the target named is Gal(b1-4)GlcNAc(a1-6)Gal(b1-4)GlcNAc. Put shortly:
as §1

The next assay deals with Gal(b1-4)GlcNAc(b1-2)Man. An outline of the steps: as §1
For assay [2], the target named is Gal(b1-4)GlcNAc(b1-2)Man(a1-3)Man(b1-4)GlcNAc(b1-4)GlcNAc. An outline of the steps:
as §1

In assay [3] the target is Gal(b1-4)GlcNAc(b1-2)Man(a1-3)[Gal(b1-4)GlcNAc(b1-2)Man(a1-6)]Man(b1-4)GlcNAc(b1-4)GlcNAc. Put shortly:
as §1

Assay [4] concerns the target Gal(b1-4)GlcNAc(b1-2)Man(a1-3)[Gal(b1-4)GlcNAc(b1-2)Man(a1-6)]Man(b1-4)GlcNAc(b1-4)[Fuc(a1-6)]GlcNAc. Put shortly:
as §1

In assay [5] the target is Gal(b1-4)GlcNAc(b1-2)Man(a1-3)[Gal(b1-4)GlcNAc(b1-2)Man(a1-6)][Gal(b1-4)GlcNAc(b1-4)]Man(b1-4)GlcNAc(b1-4)[Fuc(a1-6)]GlcNAc. An outline of the steps:
as §1

The target of assay [6] is Gal(b1-4)GlcNAc(b1-2)Man(a1-3)[Gal(b1-4)GlcNAc(b1-2)Man(a1-6)][GlcNAc(b1-4)]Man(b1-4)GlcNAc(b1-4)[Fuc(a1-6)]GlcNAc. An outline of the steps:
as §1

Assay [7] deals with Gal(b1-4)GlcNAc(b1-2)Man(a1-3)[GlcNAc(b1-2)Man(a1-6)]Man(b1-4)GlcNAc(b1-4)GlcNAc. An outline of the steps:
as §1

Assay [8] has as its target Gal(b1-4)GlcNAc(b1-2)Man(a1-3)[GlcNAc(b1-4)][Gal(b1-4)GlcNAc(b1-2)Man(a1-6)]Man(b1-4)GlcNAc(b1-4)GlcNAc. Put shortly:
as §1

The target of assay [9] is Gal(b1-4)GlcNAc(b1-2)Man(a1-3)[Man(a1-6)]Man(b1-4)GlcNAc(b1-4)GlcNAc. Put shortly: as §1
Assay [10] addresses Gal(b1-4)GlcNAc(b1-2)Man(a1-6)Man(b1-4)GlcNAc(b1-4)GlcNAc. Put shortly:
as §1

Assay [11] has as its target Gal(b1-4)GlcNAc(b1-2)Man(a1-6)[GlcNAc(b1-2)Man(a1-3)]Man(b1-4)GlcNAc(b1-4)GlcNAc. Put shortly:
as §1

The target in assay [12] is Gal(b1-4)GlcNAc(b1-2)Man(a1-6)[Man(a1-3)]Man(b1-4)GlcNAc(b1-4)GlcNAc. An outline of the steps: as §1
Assay [13] addresses Gal(b1-4)GlcNAc(b1-2)[Gal(b1-4)GlcNAc(b1-4)]Man(a1-3)[Gal(b1-4)GlcNAc(b1-2)Man(a1-6)]Man(b1-4)GlcNAc(b1-4)GlcNAc. An outline of the steps: as §1
In assay [14] the target is Gal(b1-4)GlcNAc(b1-2)[Gal(b1-4)GlcNAc(b1-4)]Man(a1-3)[Gal(b1-4)GlcNAc(b1-2)[Gal(b1-4)GlcNAc(b1-6)]Man(a1-6)]Man(b1-4)GlcNAc(b1-4)GlcNAc. An outline of the steps: as §1
For assay [15], the target named is Gal(b1-4)GlcNAc(b1-2)[Gal(b1-4)GlcNAc(b1-4)]Man(a1-3)[GlcNAc(b1-4)][Gal(b1-4)GlcNAc(b1-2)Man(a1-6)]Man(b1-4)GlcNAc(b1-4)GlcNAc. An outline of the steps:
as §1

The target of assay [16] is Gal(b1-4)GlcNAc(b1-2)[Gal(b1-4)GlcNAc(b1-4)]Man(a1-3)[GlcNAc(b1-4)][Gal(b1-4)GlcNAc(b1-2)[Gal(b1-4)GlcNAc(b1-6)]Man(a1-6)]Man(b1-4)GlcNAc(b1-4)GlcNAc. Put shortly: as §1
Assay [17] addresses Gal(b1-4)GlcNAc(b1-2)[Gal(b1-4)GlcNAc(b1-6)]Man(a1-6)[Gal(b1-4)GlcNAc(b1-2)Man(a1-3)]Man(b1-4)GlcNAc(b1-4)GlcNAc. Put shortly:
as §1

For assay [18], the target named is Gal(b1-4)GlcNAc(b1-2)[Gal(b1-4)GlcNAc(b1-6)]Man(a1-6)[Gal(b1-4)GlcNAc(b1-2)Man(a1-3)]Man(b1-4)GlcNAc(b1-4)[Fuc(a1-6)]GlcNAc. Put shortly:
as §1

B1: LngA (Escherichia coli) (protein)
chain: MLSVYNRTQKFKAEARKKIAKYHELRKQRGMSLLEVIIVLGIIGTIAAGVVILAQRAFDSRAVTDLVTNTNTVRVRMKDAYQRDGKYPDFVDPLSLTANTIKTDTSGIPAAQLVQLGKITPDEVRNNISGDFIAIGGALTSNGAQVKKGFAIELNGLSQEQCRSILGQVGNNWEYVAIGTSASGSYAMTATGVDMSVAASTTVLRSLGNNGQTTLTADKILSTCTAQVNSITLGSR
Take B1: the “glycan array binding signal (z-score)” value in the assay with Gal(b1-4)Glc is -0.026; with Gal(b1-4)Glc6S, 1.62; with Gal(b1-4)GlcNAc, -0.161; in assay [1] it was -0.522; in the assay with Gal(b1-4)GlcNAc(b1-2)Man, -0.208; in assay [2], -0.325. The “glycan array binding signal (z-score)” value is -0.412 in [3]; -0.453 in [4]; -0.407 in assay [5]; -0.61 in assay [6]; -0.469 in assay [7]; -0.51 in [8]. In addition, the “glycan array binding signal (z-score)” value was -0.393 in [9]; -0.416 in assay [10]; -0.45 in [11]; -0.463 in [12]; 0.247 in assay [13]; -0.565 in assay [14]. The “glycan array binding signal (z-score)” value is -0.15 in assay [15], 0.155 in assay [16], -0.145 in assay [17] and -0.513 in assay [18].

(Values after the supplement of paper PMC8728848.)
